In the supplement of paper PMC4723716 one finds viability index data, which are given here for 35 molecules.

± gives the uncertainty stated by the source. Whole data set: some 9,900 compounds, median “viability index relative to DMSO control” near 1, cut for the lowest 2% near 0.85. This is one part of the list.

The test deals with Plasmodium falciparum NF54 stage V gametocytes. In words: viability index relative to DMSO control (fraction); higher = less gametocyte killing. The note with it: 2.5 µM, incubation time: 72 h. In short, it runs like this:
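P. falciparum NF54 stage V gametocytes (serum-free medium, 0.75% gametocytemia, 1.25% hematocrit) were exposed to compound at 2.5 µM for 72 hr at 37°C under low oxygen, then stained with MitoTracker Red CMXRos and saponin for one to two hours. Red particles of 20–70 µm2 in one field per well were counted, and the viability index is that count scaled to the plate mean of solvent-only wells.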

[1] abbreviates: library set: Broad Institute DOS.

With `CN1C(=O)c2cc(NC(=O)c3ccc(F)c(F)c3)ccc2OC[C@@H]2O[C@@H](CC(=O)N3CCCCC3)CC[C@@H]21`, the viability index under setting [1] was determined as 0.953 ± 0.13.

Under setting [1], `C[C@H]1CN([C@@H](C)CO)C(=O)CCCn2nncc2CO[C@H]1CN(C)C(=O)c1ccc(N2CCN(C)CC2)cc1` had a viability index of 1.03 ± 0.018.

With `CC(C)(O)C#Cc1cccc(-c2nc(C(=O)N[C@@H]3CCN(Cc4ccccc4)C3)cc3c2[C@@H](CCO)N(S(=O)C(C)(C)C)C3)c1` (stereo not given in full), the viability index under setting [1] amounted to 1.08 ± 0.05.

Take `CO[C@H]1CN(C)C(=O)c2ccc(NC(=O)Nc3ccccc3Cl)cc2OC[C@H](C)NC[C@@H]1C`: the viability index under setting [1] came out at 0.989 ± 0.033.

In turn, `CN1C(=O)c2cc(NC(=O)Cc3cccs3)ccc2OC[C@H]2O[C@H](CC(=O)NCCc3ccncc3)CC[C@H]21` yielded a viability index under setting [1] of 1.11 ± 0.063.

Molecule `COc1ccccc1C#Cc1ccc([C@@H]2[C@@H](C#N)N(C(=O)C3CCC3)[C@@H]2CO)cc1` registered a viability index under setting [1] of 1.15 ± 0.082.

Take `COCC(=O)N1C[C@]2(CCN(Cc3cccnc3)CC2)c2c([C@H]1CO)n(C)c1cc(OC)ccc21`: under setting [1], the viability index came to 0.954 ± 0.033.

Under setting [1], `CO[C@@H]1CN(C)C(=O)c2cc(NS(=O)(=O)CC(F)(F)F)ccc2OC[C@H](C)NC[C@@H]1C` yielded a viability index of 1.05 ± 0.059.

Take `O=C(Cc1ccccn1)N[C@H]1CC[C@@H](CCNS(=O)(=O)c2cccc(F)c2)O[C@H]1CO`: the viability index under setting [1] worked out at 0.959 ± 0.081.

Under setting [1], `CN(C)C(=O)C[C@@H]1CC[C@@H]2[C@H](COc3ccc(NC(=O)C4CCCCC4)cc3C(=O)N2C)O1` yielded a viability index of 1.05 ± 0.041.

Consider `CCC(=O)Nc1ccc2c(c1)C(=O)N(C)C[C@@H](OC)[C@H](C)CN(C(=O)Cc1cccnc1)[C@H](C)CO2`, for which the viability index under setting [1] is 1.02 ± 0.068.

As to `O=C(C[C@@H]1CC[C@H]2[C@@H](COC[C@H](O)CN2C(=O)c2ccncc2)O1)NCc1cc(F)cc(F)c1`, the viability index under setting [1] worked out at 1.07 ± 0.046.

For `Cc1noc(C)c1NC(=O)Nc1ccc2c(c1)C(=O)N([C@H](C)CO)C[C@@H](C)[C@H](CN(C)S(=O)(=O)c1ccc(F)cc1)O2`, the viability index under setting [1] stood at 1.04 ± 0.08.

Consider `CO[C@H]1CN(C)C(=O)c2ccc(NC(=O)C3CC3)cc2OC[C@H](C)N(C(C)=O)C[C@H]1C`, for which, under setting [1], the viability index worked out at 1.05 ± 0.11.

For `COC(=O)C[C@H]1CC[C@H]2[C@@H](COc3ccc(NC(=O)Nc4c(C)noc4C)cc3C(=O)N2C)O1`, under setting [1], the viability index was 1.02 ± 0.016.

Turning to `CN1c2ccc(-c3ccccc3)cc2[C@@H]2[C@@H](CCN2C(=O)NC2CCCCC2)[C@H]1CO`, the viability index under setting [1] is 0.94 ± 0.12.

`N#C[C@@H]1N[C@@H](CO)[C@@H]1c1ccc(C#CC2CCCCC2)cc1` came in with a viability index under setting [1] of 0.997 ± 0.033.

Consider `O=C(c1cnccn1)N1CC(=O)N2[C@H](C1)[C@@H](c1ccc(C#CC3CC3)cc1)[C@@H]2CO`, for which the viability index under setting [1] was 1.12 ± 0.007.

Consider `COc1ccc2c3c([C@@H](CO)N(Cc4ccncc4)C[C@]33CN(C3)C(=O)Nc3cccc(F)c3)n(C)c2c1`, for which, under setting [1], the viability index was found to be 1 ± 0.16.

`C[C@H]1CN([C@@H](C)CO)C(=O)c2cc(-c3ccc(C#N)cc3)cnc2O[C@H]1CN(C)Cc1cccnc1` had a viability index under setting [1] of 1.05 ± 0.021.

`COc1ccc2c3c([C@H](CO)N(Cc4cc(OC)cc(OC)c4)C[C@]33CN(C3)C(=O)CN3CCOCC3)n(C)c2c1` returned a viability index under setting [1] of 0.942 ± 0.055.

For `COc1ccc2c3c([C@H](CO)NC[C@]33CN(C3)S(=O)(=O)c3ccc(C)cc3)n(C)c2c1`, the viability index under setting [1] stood at 1.09 ± 0.086.

Under setting [1], `O=C(Nc1cccc(Cl)c1)N1C[C@H]2[C@@H](c3ccccc31)[C@@H](CO)N2Cc1cccnc1` returned a viability index of 1.06 ± 0.092.

As to `CN(C)C(=O)c1cccc(-c2ccc([C@@H]3[C@@H](CO)N4CCCCN(CC5CCOCC5)C[C@H]34)cc2)c1`, the viability index under setting [1] stood at 0.983 ± 0.086.

On to `COc1ccc2c3c([nH]c2c1)[C@@H](CO)N(C[C@]31CCN(CC1)S(=O)(=O)c1ccccc1)C(C)=O`, for which the viability index under setting [1] worked out at 1.05 ± 0.045.

The molecule `Cc1noc(C)c1NC(=O)N(C)C[C@@H]1Oc2ccc(NC(=O)Cc3cn(C)c4ccccc34)cc2CC(=O)N([C@@H](C)CO)C[C@@H]1C` gave a viability index under setting [1] of 0.979 ± 0.081.

In turn, `COc1ccccc1C#Cc1ccc([C@H]2[C@@H](C#N)N(C(=O)C3CCCCC3)[C@H]2CO)cc1` yielded a viability index (library set: Broad Institute Blood Stage) of 0.345 ± 0.087.

Consider `C[C@H](CO)N1C[C@H](C)[C@@H](CN(C)C(=O)Nc2ccccc2F)Oc2cc(Br)ccc2S1(=O)=O`, for which, under setting [1], the viability index was 1.01 ± 0.02.

Molecule `CC(=O)N1[C@H](CO)[C@H](c2ccc(-c3ccc(C#N)cc3)cc2)C12CN(C(=O)C1CC1)C2` showed a viability index under setting [1] of 1.09 ± 0.04.

Consider `COc1cccc(-c2ccc3c(c2)[C@H]2[C@H](CCN2C(=O)c2ccccc2F)[C@@H](CO)N3C)c1`, for which the viability index under setting [1] worked out at 0.897 ± 0.028.

The molecule `CN1c2ccc(Br)cc2[C@@H]2[C@@H](CCN2S(=O)(=O)c2ccccc2F)[C@@H]1CO` registered a viability index under setting [1] of 0.96 ± 0.062.

Regarding `Cc1ccc(S(=O)(=O)NCC[C@H]2CC[C@H](NC(=O)c3cccnc3)[C@H](CO)O2)cc1`, the viability index under setting [1] was found to be 1.06 ± 0.085.

Regarding `COCC#Cc1ccc([C@@H]2[C@H](C#N)N(C(=O)Cc3ccccc3)[C@H]2CO)cc1`, the viability index under setting [1] is 1.12 ± 0.056.

In turn, `CCc1csc(N2[C@@H](C#N)[C@@H](c3ccccc3C3=CCCC3)[C@@H]2CO)n1` returned a viability index under setting [1] of 1.11 ± 0.087.

As to `Cc1noc(C)c1NC(=O)N(C)C[C@@H]1OCc2cnnn2CCCC(=O)N([C@H](C)CO)C[C@H]1C`, under setting [1], the viability index is 1.09 ± 0.046.
